Assay results from PubChem BioAssay AID1347044 (National Center for Advancing Translational Sciences (NCATS), 2019).
The list shows a part of the results. The main result of the screen is listed elsewhere. These columns were measured beside it and carry no call. Most of these compounds were active or inconclusive in the main read-out, so they are no random draw. Words in brackets tell the shape of the fitted curve; partial curves, single points and poor fits give uncertain potencies.

Test: Natriuretic polypeptide receptor (hNpr1) antagonism - Confirmation; note: nearly all actives have a fitted effect of over 70% in size
Conditions: HEK293 hNpr1 cGMP GloSensor luminescence, ANP-stimulated; measured here: HEK-hNpr1 cytotoxicity, CellTiter-Glo
Outline: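 HEK293 cells expressing hNpr1 and the pGS-40F GloSensor cGMP sensor, loaded with 2% GloSensor reagent for 2 h, then treated 30 min with compound at room temperature. Luciferase luminescence read before and 20 min after 0.1 nM hNppA stimulation.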
Tags give direction and shape of the fitted curve.

Structure (SMILES)	CC50
COc1cccc(-c2noc(CC3CCN(C(=O)c4ccc(C)cc4)CC3)n2)c1	9.68 µM [falling, full curve]
CCc1ccc(NC(=O)C2CCN(c3cc(C(F)(F)F)ncn3)CC2)cc1	9.68 µM [falling, partial curve]
Fc1ccc(-c2cnc([C@@H]3COCCN3Cc3c[nH]c4ccccc34)[nH]2)c(F)c1	39.6 µM [falling, partial curve]
CC1=C[C@@H](CN2CCOCC2)[C@H](C(C)C)C[C@H]1Cc1nnc(-c2ccncc2)o1	35.3 µM [falling, partial curve, poor fit]
O=C(c1ccc(F)c(Cl)c1)N1CCC(Cc2nc(-c3cnccn3)no2)CC1	38.5 µM [falling, single point]
COc1ccc(S(=O)(=O)N2CCC3(CC2)CC(N(C)Cc2ccccc2)CCO3)cc1 (configuration not stated)	24.3 µM [falling, partial curve]
CCNC(=O)Cc1c[nH]c2ncc(-c3ccccc3C)cc12	31.4 µM [falling, partial curve]
O=C(Nc1ccccc1)c1cc2n(n1)CC(c1ccc(Br)cc1)OC2 (configuration not stated)	30.6 µM [falling, single point]
CC1=C[C@@H](CN(C)Cc2cccnc2)[C@H](C(C)C)C[C@H]1Cc1nnc(-c2ccc([N+](=O)[O-])cc2)o1	19.3 µM [falling, partial curve]
Cc1nc2cccnc2n1CC1CCCN(S(=O)(=O)c2ccc(C(C)C)cc2)C1 (configuration not stated)	21.7 µM [falling, partial curve]
CCCCOc1ccc(C(=O)N2CCC(Cc3nc(-c4ccccc4)no3)CC2)cc1	12.2 µM [falling, partial curve]
O=C(CCc1ccccc1)N1CC(Oc2ccc(-c3noc(C4CC4)n3)cc2)C1	21.7 µM [falling, partial curve]
COc1ccc(C(=O)NC2CCCN(c3cc(-c4ccc(Cl)cc4)[nH]n3)C2)c(C)c1 (configuration not stated)	43.2 µM [falling, single point]
COc1cc(Cl)ccc1C(=O)N1CCC(Cc2nc(-c3ccc(F)cc3)no2)CC1	5.44 µM [falling, full curve]
Cc1ccc(OCCC2CCN(C(=O)CCCC(=O)n3nc(C)c4ccccc43)C2)cc1 (configuration not stated)	15.3 µM [falling, partial curve]
Cc1nn(C)cc1C(C)NC(=O)CN1CCCc2nc(-c3ccccc3)ncc2C1=O (configuration not stated)	21.7 µM [falling, partial curve]
O=C(c1ccncc1)N1CC2CCC(C1)N2Cc1ccc(-c2cccs2)cc1	5.44 µM [falling, full curve]
